The text below walks through data of PubChem BioAssay AID360 (National Center for Advancing Translational Sciences (NCATS), 2006).

Screen size: about 48,000 compounds; about 550 (1.1%) were called active. Not shown: some 4% with an inconclusive outcome. Cut-off read from the data, not from the text of the source: active = potency below about 15 µM; inconclusive = mostly about 16 µM to 33 µM; inactive = weaker than that. This is one part of the list.
Potency is the fitted concentration of half-maximal effect.

UniProt P04062, sequence (P04062 whole entry, looked up): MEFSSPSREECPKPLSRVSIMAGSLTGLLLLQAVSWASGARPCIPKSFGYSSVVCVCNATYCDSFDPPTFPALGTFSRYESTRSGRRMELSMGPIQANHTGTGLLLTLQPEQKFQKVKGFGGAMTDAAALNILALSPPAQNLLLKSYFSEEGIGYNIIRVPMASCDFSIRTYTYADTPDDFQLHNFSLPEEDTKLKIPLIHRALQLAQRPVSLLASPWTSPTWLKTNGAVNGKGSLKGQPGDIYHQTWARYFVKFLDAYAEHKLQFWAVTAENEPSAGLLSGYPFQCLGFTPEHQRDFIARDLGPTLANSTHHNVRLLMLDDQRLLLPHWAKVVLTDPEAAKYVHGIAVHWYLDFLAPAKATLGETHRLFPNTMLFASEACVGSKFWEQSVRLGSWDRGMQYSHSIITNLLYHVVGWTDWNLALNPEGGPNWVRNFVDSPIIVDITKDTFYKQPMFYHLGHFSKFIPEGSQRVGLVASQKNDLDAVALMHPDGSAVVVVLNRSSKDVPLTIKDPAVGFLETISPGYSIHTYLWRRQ

This assay concerns the target Lysosomal acid glucosylceramidase (Homo sapiens) (UniProt P04062). In words: Glucocerebrosidase.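 Note: the screen sought inhibitors.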 The settings on record: purified enzyme, resorufin glucoside fluorescence (screen aimed at inhibitors), 20 min. The method in brief:
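Compounds titrated against 0.2 nM normal enzyme, 30 uM resorufin beta-D-glucopyranoside substrate, citrate/phosphate buffer with taurocholate and tween-20, pH 5.9. Reaction ran 20 min at room temperature; fluorescence (Ex 548/Em 600) gave AC50.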
As for `CC(C)(C)n1nnnc1C(c1cccc(C(F)(F)F)c1)N1CCOCC1` (stereo not drawn), the Potency is inactive: > 76.9 µM. As for `O=C(NCC1CCCO1)C1CCCN(c2ncccn2)C1` (stereo not drawn), the Potency is inactive: > 76.9 µM.

On to `O=C(NC(Cc1ccc(F)cc1)C(=O)O)c1ccccc1` (stereo not drawn), for which the Potency was inactive: > 76.9 µM. Regarding `O=C(c1nc2ncccn2n1)N1CCN(c2ccc(F)cc2)CC1`, the Potency is inactive: > 76.9 µM. Consider `COCCSc1nnc(-c2cnccn2)o1`, for which the Potency is inactive: > 76.9 µM. Regarding `N#Cc1c(N)nc2c(c1-c1ccco1)CCCCC2`, the Potency was inactive: > 76.9 µM. With `COc1cccc(N2CCN(C3CC(=O)N(c4ccc(F)c(Cl)c4)C3=O)CC2)c1` (stereo not drawn), the Potency was inactive: > 76.9 µM.

Turning to `CCN(CC)C(c1ccc(C)cc1)c1nnnn1C1CCCCC1` (stereo not drawn), the Potency is inactive: > 76.9 µM.

On to `Cc1cc(C(=O)Nc2cccnc2)no1`, for which the Potency is inactive: > 76.9 µM. Regarding `CCOC(=O)c1cc(-c2cccs2)nn1CCC#N`, the Potency was inactive: > 76.9 µM. As for `O=C(Cn1nc(-c2ccccc2)ccc1=O)NCCN1CCN(Cc2ccccc2)CC1`, the Potency was inactive: > 76.9 µM. For the compound `CCCC(c1nnnn1CCOC)N1CCN(c2cccc(OC)c2)CC1` (stereo not drawn), the Potency is inactive: > 76.9 µM. For `c1ccc(-c2nnc(CSc3nnc(-c4cccs4)o3)o2)cc1`, the Potency was inactive: > 76.9 µM. With `O=C(CSc1nnc(-c2ccncc2)n1C1CCCCC1)Nc1ccccc1` the figure was inactive: > 76.9 µM; with `COC(=O)C1CCN(C(=O)COC(=O)Cn2cnnn2)CC1`, inactive: > 76.9 µM.

For `Cc1ccc(F)cc1NC(=O)c1cccc2nccnc12`, the Potency was inactive: > 76.9 µM.

As for `Cc1nn(C)c(C)c1S(=O)(=O)N1CCc2ccccc21`, the Potency is inactive: > 76.9 µM. With `CCOC(=O)N1CCN(C(=O)c2cn(-c3ccc(C)c(C)c3)c(=O)c3ccccc23)CC1`, the Potency was inactive: > 76.9 µM. As for `COc1ccc(Nc2nc(N)nc(SCc3nnc(C)s3)n2)cc1`, the Potency is inactive: > 76.9 µM. With `COc1ccc(CCNc2oc(-c3ccccc3OC)nc2C#N)cc1OC` the figure was inactive: > 76.9 µM. With `O=C(c1ccc(COc2ccc3c(c2)CCC3)o1)N1CCN(c2ccccc2)CC1`, the Potency is inactive: > 76.9 µM. With `CCCn1c2c(c(O)c(C(=O)Nc3nccs3)c1=O)CCCC2` the figure was inactive: > 76.9 µM; with `Cc1ccc(NCc2nnc(SCC(=O)Nc3cccc(O)c3)n2CC2CCCO2)c(C)c1` (stereo not drawn), inactive: > 76.9 µM. On to `CCc1ccc2[nH]c(=O)c(C(c3nnnn3CC3CCCO3)N3CCN4CCCC4C3)cc2c1` (stereo not drawn), for which the Potency is inactive: > 76.9 µM.

For the compound `CC(C)(C)OC(=O)NCCc1nnc(SCC(N)=O)o1`, the Potency was inactive: > 76.9 µM. `Cc1noc(NS(=O)(=O)c2ccc(N/C=C/C(=O)c3ccc4c(c3)OCO4)cc2)c1C`: the Potency was inactive: > 76.9 µM. Consider `C=CCn1c(SCc2ccccc2C#N)nnc1-c1ccccc1O`, for which the Potency is inactive: > 76.9 µM. With `O=C1c2ccccc2C(=O)N1CCCCSc1nnc2ccccn12` the figure was inactive: > 76.9 µM; with `CCOC(=O)C1CCCN(S(=O)(=O)c2ccc(C)cc2)C1` (stereo not drawn), inactive: > 76.9 µM; with `NC(=O)c1nsc(C(=O)N(CC(=O)NCc2ccc3c(c2)OCO3)C2CCCCC2)c1N`, inactive: > 76.9 µM. Consider `COc1ccc(C2C(C(=O)N3CCOCC3)CCC(=O)N2c2ccc(OC)cc2)cc1` (stereo not drawn), for which the Potency was inactive: > 76.9 µM.

In the case of `COc1ccc(COC(=O)c2n[nH]c3ccccc23)cc1F`, the Potency was inactive: > 76.9 µM. As for `CN(C)S(=O)(=O)c1cccc(C(=O)NCC2CCCO2)c1` (stereo not drawn), the figure is inactive: > 76.9 µM; as for `CCCn1c(SCC(=O)Nc2ccccc2C(=O)OCC)nc2c1c(=O)n(C)c(=O)n2C`, inactive: > 76.9 µM; as for `N#CCCN(C1CCCCC1)S(=O)(=O)CCOc1ccccc1`, inactive: > 76.9 µM. With `COc1cc(-c2nnc(-c3ccncc3)o2)ccc1OCc1ccccc1`, the Potency is inactive: > 76.9 µM. For the compound `COc1cc(S(=O)(=O)N2CCN(c3ccccc3F)CC2)ccc1Cl`, the Potency was inactive: > 76.9 µM.

Consider `CCOCCCn1c(SCC(=O)Nc2ccc(C(N)=O)cc2)nc2ccccc2c1=O`, for which the Potency was inactive: > 76.9 µM. In the case of `O=C1CN2C(=N1)N(Cc1ccccc1)c1ccccc12`, the Potency was inactive: > 76.9 µM. With `C=CCn1c(N)c(C(=O)NCc2ccco2)sc1=S` the figure was inactive: > 76.9 µM; with `COc1ccc(S(=O)(=O)N(C)CC(=O)NCc2cccnc2)cc1`, inactive: > 76.9 µM. `Cc1ccc(Cn2c(Sc3ncccn3)nc3c2c(=O)[nH]c(=O)n3C)cc1`: the Potency is inactive: > 76.9 µM. In the case of `N#CC(c1nc2ccccc2nc1N1CCCC1)S(=O)(=O)c1cccs1` (stereo not drawn), the Potency is inactive: > 76.9 µM. Take `O=C(O)CCC1COc2ccccc2O1` (stereo not drawn): the Potency is inactive: > 76.9 µM.

Consider `COC(=O)c1cn(C(=O)c2ccccc2F)nc1N`, for which the Potency is inactive: > 76.9 µM. With `CCCOc1nc(N)c(C#N)c(-c2ccccc2F)c1C#N`, the Potency was inactive: > 76.9 µM. For the compound `COc1cc(C(=S)N2CCCC2)ccc1O`, the Potency is inactive: > 76.9 µM.

With `CCOC(=O)C(C)Sc1nc2c([nH]c3ccccc32)c(=O)n1C` (stereo not drawn), the Potency was inactive: > 76.9 µM.

On to `COc1ccc(CCNC(=O)c2[nH]c(C)c(C(C)=O)c2C)cc1OC`, for which the Potency was inactive: > 76.9 µM. As for `COc1cc(NC(=O)C(C)C)ccc1NC(=O)c1ccco1`, the figure is inactive: > 76.9 µM. As for `COc1ccc(CN2CC(C(=O)NCCC3=CCCCC3)CC2=O)cc1` (stereo not drawn), the figure is inactive: > 76.9 µM; as for `NC(=O)C[C@@H]1N[C@]2(C(=O)Nc3ccccc32)[C@@H]2C(=O)N(c3cc(C(F)(F)F)ccc3Cl)C(=O)[C@H]12`, inactive: > 76.9 µM; as for `CCOC(=O)c1ccc(N2C(=O)c3n[nH]c(C)c3C2c2cccnc2)cc1` (stereo not drawn), inactive: > 76.9 µM. With `COc1ccc(C2(O)CCN(Cc3nnnn3Cc3ccc(F)cc3)CC2)cc1`, the Potency is inactive: > 76.9 µM. As to `O=C(CN1C(=O)C2C3c4ccccc4C(c4ccccc43)C2C1=O)N1CCOCC1` (stereo not drawn), the Potency was inactive: > 76.9 µM.

In the case of `Cc1nnc(NC(=O)Oc2ccccc2)s1`, the Potency is inactive: > 76.9 µM. Take `Cc1cc(C)nc(SCc2nnc(SCC(=O)OC3CCCCC3)o2)n1`: the Potency is inactive: > 76.9 µM.

As for `COc1cccc2cc(C(=O)N3CCN(C/C=C/c4ccccc4)CC3)c(=O)oc12`, the Potency is inactive: > 76.9 µM.
